# Data from PubChem BioAssay AID1508642 (National Center for Advancing Translational Sciences (NCATS), 2021).
# Out of some 43,000 compounds screened, about 200 (0.47%) were called active. Not shown: some 12% with an inconclusive outcome. The call rests on the fitted dose curve; in most records, active means well fitted cell-killing curve with a large enough effect; inconclusive means small, poorly fitted or top-dose-only effect, or effect the other way; inactive means flat fitted curve, though single readings scatter. Some of the results follow.
# Assay: Cell viability qHTS assay in S16 Pmp22-F2sN cells; further: nearly all actives have a fitted effect of over 65% in size
# Settings: S16 Pmp22-F2sN Schwann cells (luciferase reporters placed in the Pmp22 gene) viability, CellTiter-Glo, 24 h; series mostly up to 57.5 µM; activity change, negative = cytotoxicity: at the top concentration
# Procedure, shortened: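 CellTiter-Glo counter-screen, qHTS, 1536-well. Cells: S16(c9) Pmp22-F2sN, 500-1,000/well in DMEM + 10% FBS. Cpd 23 nL pin transfer, 24 h, 37C/5% CO2. Read: luminescence, CCD imager.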
# On the % scale 0 is the no-effect control and ±100 the full control effect.
row,SMILES,"activity change, negative = cytotoxicity"
1,CCOC(=O)c1cnc2c(Cl)cc(Cl)cc2c1Nc1ccccc1OC,inactive: -0.993%
2,COC(=O)c1ccc(Cn2nnc3c(=O)[nH]c(C4CCCN(S(=O)(=O)c5ccccc5Cl)C4)nc32)cc1 (stereo not drawn),inactive: -0.846%
3,Cc1ccc(-c2nnc3c4ccccc4c(C)nn23)cc1NC(=O)c1ccccc1,inactive: 2.64%
4,CCc1cccc(NC(=O)CN(C)S(=O)(=O)c2ccc3[nH]c4c(c3c2)CCCC4)c1,inactive: -14.5%
5,CCc1ccccc1-n1c(N)c(C(=O)OC)c2nc3ccccc3nc21,inactive: -7.7%
6,CC(C)(C)OC(=O)N1CCC(c2c(C(=O)N3CCN(C(=O)c4ccco4)CC3)cnn2-c2ccc(F)cc2F)CC1,inactive: -17.1%
7,CCCOC(=O)c1c(NC(=O)c2cc3ccccc3c(=O)o2)sc2c1CCC(C)C2 (stereo not drawn),inactive: -0.435%
8,Cc1ccc(N2CC(NC(=O)c3ccc(Br)o3)CC2=O)cc1C (stereo not drawn),inactive: 3.68%
9,Cc1nn(CCC(=O)NCc2ccc(N(C)C)cc2)c(=O)c2nn(-c3ccccc3)c(C)c12,inactive: 4.62%
10,CC(NC(=O)C(=O)Nc1c2c(nn1-c1ccccc1)CSC2)c1ccccc1 (stereo not drawn),inactive: 0.987%
11,Cc1ccc2c(c1)c(=O)c(C(=O)c1ccncc1)cn2CC(=O)Nc1ccc(C(C)C)cc1,inactive: 17.6%
12,CCc1nnc(NC(=O)CSc2nccn2Cc2ccc(F)cc2)s1,inactive: 7.3%
13,COc1ccc2nc3oc(C(=O)N(C)c4ccc(Cl)cc4)cc3cc2c1,inactive: -0.916%
14,COc1ccc(N2CCN(CC(O)COc3ccc(C(C)C)c(C)c3)CC2)cc1 (stereo not drawn),inactive: -19.7%
15,Cc1nnc(N2CCN(c3ccccc3F)CC2)c2c1nnn2Cc1ccccc1Cl,inactive: -19.2%
16,CC(C)(C)c1ccc(C(=O)Nc2ccc(-c3nc4cc(Cl)ccc4o3)cc2)cc1,inactive: -0.455%
17,CCCN1C(=O)CN(C2CCCCC2)C(=O)C1c1ccc(OC)c(OC)c1 (stereo not drawn),inactive: 12.9%
18,COc1ccc(NC(=O)Cn2c(=O)n(CCC(=O)NCCc3ccc(OC)c(OC)c3)c(=O)c3ccccc32)cc1Cl,inactive: -4.03%
19,COC(=O)c1c(NC(=O)c2nc(SCc3ccc(C)cc3)ncc2Cl)sc2c1CCCC2,inactive: 0.929%
20,Cc1ccc2c(=O)cc(C(=O)Nc3ccc(S(=O)(=O)Nc4onc(C)c4C)cc3)oc2c1,inactive: -6.45%
21,COc1cccc([C@@H]2Nc3ccc(C(=O)O)cc3[C@@H]3C=CC[C@@H]32)c1OC,inactive: -6.71%
22,Cc1cccc(-n2ncc(C(=O)N3CCN(C(=O)c4ccco4)CC3)c2C2CCN(C(=O)OC(C)(C)C)CC2)c1,inactive: -3.08%
23,COc1cccc(CNC(=O)Cn2c(SCC(=O)Nc3ccc(F)cc3)nc3ccccc32)c1,inactive: -7.9%
24,Cc1cccc(CS(=O)(=O)Cc2ccc(C(=O)NC(C)c3ccccc3)o2)c1 (stereo not drawn),inactive: -13.4%

row,SMILES,"activity change, negative = cytotoxicity"
1,Cc1ccc2c(c1)-c1c(c(C(=O)NCCc3ccccc3)nn1C)CS2,inactive: -8.33%
2,CCCN(C(=O)Cc1c(C(=O)O)[nH]c2ccc(Cl)cc12)c1ccc(OCC)cc1,inactive: 5.35%
3,CC(C)CCNC(=O)c1cccc(-n2cnc3cccnc32)c1,inactive: -1.64%
4,Cc1ccc(C)c(N2CCN(S(=O)(=O)c3ccc4c(c3)CC(=O)N4C)CC2)c1,inactive: 4.06%
5,Cc1ccc(C(=O)COC(=O)c2cccc(NC(=O)c3ccc(Br)cc3)c2)cc1,inactive: -1.1%
6,Cc1ccc(S(=O)(=O)NCC(c2ccco2)N2CCN(c3ccccc3F)CC2)cc1 (stereo not drawn),inactive: -1.33%
7,Cc1cccc(N(CC(=O)Nc2cccc(Cl)c2C)S(C)(=O)=O)c1C,inactive: -3.7%
8,CCOCCCNC(=O)c1[nH]c2cc(OC)ccc2c1Sc1ccccc1,inactive: 3.14%
9,COc1ccc(CCC(=O)NCc2nc3cccnc3n2Cc2ccc(C)cc2)cc1,inactive: 4.21%
10,O=C(NC1CC(=O)N(c2ccc(F)cc2)C1)C1CCCCC1 (stereo not drawn),inactive: 5.27%
11,CCOc1cc(/C=C(\C#N)C(=O)Nc2ccccc2C)ccc1OCc1cc(=O)n2nc(CC)sc2n1,inactive: 0.271%
12,COc1ccccc1C(=O)Nc1ccccc1SCc1cc(=O)c2ccccc2[nH]1,inactive: -11.2%
13,CCN(CC)C(=O)Cn1c(=O)n(CCCCCC(=O)NCc2ccccc2)c(=O)c2sccc21,inactive: -19.4%
14,O=C(c1ccc2c(c1)N(Cc1ccccc1F)C(=O)c1ccccc1S2=O)N1CCCCC1 (stereo not drawn),inactive: 8.07%
15,COc1ccc(-c2nc(C)c(CCNC(=O)c3cc(OC)c(OC)c(OC)c3)s2)cc1OC,inactive: 7.33%
16,O=C(NCc1ccccc1)c1cc2ccccc2o1,inactive: 1.16%
17,CCOc1ccc(-c2csc(-c3nc(-c4ccc(Br)s4)cs3)n2)cc1,inactive: 6.99%
18,Cc1ccc(NC(=O)C2CCN(c3nnc(-n4cccc4)s3)CC2)cc1Cl,inactive: 3.85%
19,Cc1nnc(SCC(=O)NCc2ccc(N(C)C)cc2)c2nn(-c3ccccc3)c(C)c12,inactive: 2.73%
20,COc1cccc(C(c2c(O)cc(C)n(Cc3ccco3)c2=O)N2CCC(C)CC2)c1 (stereo not drawn),inactive: 0.969%
21,CCOc1ccc(C(=O)c2oc3ccccc3c2NC(=O)c2cc(-c3ccccc3)on2)cc1,inactive: 10.9%
22,Cc1ccc(NC(=O)C(Cc2ccccc2)n2cccc2)c(C)c1 (stereo not drawn),inactive: -1.21%
23,CSc1cccc(N2C(=O)N(CC(=O)NCc3ccccc3Cl)c3ccccc3S2(=O)=O)c1,inactive: 17.1%
24,CC(C)CCOc1ccc(Oc2nc(N(C)C)nc(N(C)C)n2)nn1,inactive: -14.6%

row,SMILES,"activity change, negative = cytotoxicity"
1,COc1ccc2c(CNCc3cccs3)c(C(=O)O)n(Cc3ccc(F)cc3Cl)c2c1,inactive: 3.06%
2,COc1ccccc1-n1ncc2c(=O)[nH]c(SCC(=O)Nc3cccc(F)c3)nc21,inactive: 6.16%
3,CCOc1ccccc1N(C)C(=O)Cn1cnc2onc(-c3ccc(F)cc3)c2c1=O,inactive: 2.93%
4,Cc1ccc(NC(=O)CSc2nc(-c3cccs3)cc(C(F)(F)F)n2)cc1C,inactive: -14.8%
5,COc1cc(-c2noc(-c3ccc(NC4CCCCC4)c([N+](=O)[O-])c3)n2)cc(OC)c1OC,inactive: 16.3%
6,CCCCCn1c(=N)c(S(=O)(=O)c2ccccc2)cc2c(=O)n3cccc(C)c3nc21,inactive: 12%
7,CC(C)Oc1cccc(C(=O)Nc2ccc(-c3nc4cc(Cl)cc(Cl)c4o3)cc2)c1,inactive: -4.72%
8,Cc1cccc2sc(N(Cc3cccnc3)C(=O)Cc3ccccc3)nc12,inactive: -13.2%
9,CCSc1nnc2c(n1)OC(c1ccc(OCC(=O)O)cc1)Nc1ccccc1-2 (stereo not drawn),inactive: 7.96%
10,O=C(CCC1N=C2c3ccccc3N=C(SCC(=O)Nc3ccccc3F)N2C1=O)NCc1cccs1 (stereo not drawn),inactive: -21.4%
11,CCOC(=O)C1=C(c2ccccc2)Nc2ncnn2C1c1ccc(Cl)cc1 (stereo not drawn),inactive: -12.2%
12,COc1ccc(S(=O)(=O)N(CCc2ccccc2)CC(=O)Nc2cc(C)ccc2C)cc1,inactive: -1.96%
13,Cc1cccc(NC(=O)CSc2cn(CC(=O)N3CCOCC3)c3ccccc23)c1,inactive: 7.87%
14,CCc1ccc(NC(=O)C2CCN(S(=O)(=O)c3c(C)noc3/C=C/c3cccs3)CC2)cc1,inactive: 10.5%
15,CCn1cc(C(=O)NCCOC)c(=O)c2cc(S(=O)(=O)N3CCOCC3)ccc21,inactive: -4.73%
16,COc1ccc(CNC(=O)c2ccc3c(c2)NC(=O)C(CS(=O)(=O)Cc2ccccc2Cl)N3)cc1 (stereo not drawn),inactive: -0.657%
17,CCOc1ccccc1CNC(=O)CN1C(=O)CCn2nc(-c3cn(C)c4ccccc34)cc21,inactive: 3.67%
18,O=C(c1ccc2c(c1)N(Cc1cccc(Cl)c1)C(=O)c1ccccc1S2(=O)=O)N1CCC(Cc2ccccc2)CC1,inactive: -0.639%
19,COc1cc(Cl)c(C)cc1Nc1c2c(nc3ccccc13)CCC2,inactive: 10.2%
20,Cc1nc2ccc(S(=O)(=O)N(CC(=O)Nc3ccc(Cl)cc3)Cc3ccccc3)cc2s1,inactive: -0.3%
21,CC(=O)Nc1ccc(S(=O)(=O)N2CCN(c3ccccc3)CC2)cc1,inactive: 16.1%
22,COc1ccc(C)cc1NC(=O)C1CCCN(S(=O)(=O)c2ccc3c(c2)oc(=O)n3C)C1 (stereo not drawn),inactive: 0.249%
23,COc1cccc(-c2nnc3n(CCc4ccccc4)c(=O)c4ccccc4n23)c1O,inactive: -22.2%
24,CCOC(=O)CC(=O)CSc1nc2ccccc2c(=O)n1CCc1ccccc1,inactive: -3.99%

row,SMILES,"activity change, negative = cytotoxicity"
1,COc1cccc(CNC(=O)CN(c2ccc(C(C)C)cc2)S(=O)(=O)c2c(C)n[nH]c2C)c1,inactive: -14.5%
2,Cn1c(=O)c(=O)n(C)c2cc(N3CCCC3)c(NC(=O)c3ccc(C(C)(C)C)cc3)cc21,inactive: -2.93%
3,Cc1ccc(SCc2nc(-c3ccc(C(=O)NCc4ccccc4Cl)cc3)oc2C)cc1,inactive: -14.9%
4,CC(=O)Nc1cccc(NC(=O)C2(c3cccs3)CCOCC2)c1,inactive: 16.1%
5,Cn1cc(S(=O)(=O)N2CCCC2)cc1C(=O)Nc1ccc(C(F)(F)F)cc1,inactive: -5.67%
6,COc1ccccc1-c1nnc(C2CCN(S(=O)(=O)c3ccccc3)CC2)o1,inactive: 8.12%
7,O=C(Nc1ccc(NC(=O)c2ccc(Br)cc2)c(Cl)c1)c1ccc(Br)cc1,inactive: 8.17%
8,COc1ccc(C(=O)Nc2nc3ccc(S(=O)(=O)N4CCCC4)cc3s2)cc1,inactive: -0.687%
9,CCCCCn1c(=O)[nH]c2cc(C(=O)Nc3ccc(OC)c(OC)c3)ccc2c1=O,inactive: 3.62%
10,COc1cccc(N2CCN(C(=O)Cn3cnc4onc(-c5ccc(F)cc5)c4c3=O)CC2)c1,inactive: -8.54%
11,COc1cccc(-c2nc(CS(=O)(=O)CC(=O)NCCCN3CCN(C)CC3)c(C)o2)c1,inactive: -1.37%
12,CCc1nn(CC(=O)N2CCN(c3cccc(C(F)(F)F)c3)CC2)c(=O)c2cc3occc3n12,inactive: -4.12%
13,COc1cccc2cc(-c3nnc(-c4ccc(Cl)cc4)o3)c(=O)oc12,inactive: -0.0034%
14,COc1ccc(CCNC(=O)Cn2nnc(-c3cccc(C(F)(F)F)c3)n2)cc1OC,inactive: -3.5%
15,Cc1ccc(-n2nc(CO)c(C(=O)NCCO)n2)cc1,inactive: 9.16%
16,CC(CNC(=O)c1ccc(Cn2c(SCc3ccccc3)nc3cccnc32)cc1)c1ccccc1 (stereo not drawn),inactive: -5.52%
17,Cc1cccc(NS(=O)(=O)c2nnc(NC(=O)C3CCCCC3)s2)c1,inactive: -6.39%
18,COc1cc2[nH]c(=O)n(Cc3ccc(C(=O)N4CCN(c5cccc(C)c5C)CC4)cc3)c(=O)c2cc1OC,inactive: 0.192%
19,COc1ccc(CNC(=O)c2cc(Nc3ccc(OC)cc3OC)nc3ccccc23)cc1,inactive: -22.2%
20,CCOC(=O)c1ccc(NC(=O)c2ccc3c(c2)CCN3S(=O)(=O)c2ccc(Cl)cc2)cc1,inactive: 1.44%
21,O=C(CSc1n[nH]c(-c2ccccc2Cl)n1)N1CCN(c2ccc(F)cc2)CC1,inactive: -0.46%
